The test system of the data set is ATP. The data set can be described thus: switch fluorescence ratio, 500 uM ATP over buffer (Cy3 cluster intensity, sum of 5 cycles each) (fold (ratio)); higher = stronger signal-on switching upon ATP binding; sequences stand for … in TCGTCGGCAGCGTCAGATGTGTATAAGAGACAGTTTTTTTTTTTTTTTTTTTTTTTTT…TC. As to conditions: aptamer strand: ATP DNA aptamer (quencher-CACCTGGGGGAGTATTGCGGAGGAAGG + anchor), 100 nM annealed; ATP concentration: 500 uM; one replicate. The procedure, abridged:
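Between each of five buffer/ATP cycles, the flow-cell was stripped with NaOH and re-annealed. Each cycle imaged Cy3-labelled switching-strand clusters, annealed to 100 nM quencher-labelled ATP aptamer on a modified Illumina MiSeq flow-cell, first in selection buffer and then after 15 min with 500 uM ATP at 22 °C. The fluorescence ratio is summed target-cycle over summed buffer-cycle Cy3 intensity per cluster, averaged per switch-domain sequence, with clusters outside 100-1000 RFU excluded.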

Sequences with one replicate were seen in a single cluster, so their values are uncertain.
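Further: ATP exposure 15 min at 22 °C before imaging.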

GACGACAGGG: the switch fluorescence ratio is 1.14.
The value for GGCTGGCTGC was 0.952; that for GTCTGAACAG was 0.986.
The value for GTCGTAGTCA was 0.984.
As to GCTAATCAGC, the switch fluorescence ratio is 0.995.
With GGATTTTC, the switch fluorescence ratio worked out at 1.03.
In the case of TACGGGAA it was 1.11.
The value for ATTGGCTAGC was 1.02; that for ACCCGTGCGC was 1.11.
In the case of TGTTCAAGGC it was 1.07.
With GTTAGTAGAG, the switch fluorescence ratio stood at 1.
TGGTTGCTGC: the switch fluorescence ratio was determined as 0.972.
The value for GCTTCTACTT was 1.03.
In the case of TTCATTATTG it was 0.94; in that of GCATTTAGTT, 0.96; in that of TAATTAGC, 0.99.
TATATATACA: the switch fluorescence ratio was found to be 0.983.
In the case of TTTCCCGCGC it was 1.36; in that of TCATCTTACT, 1.05; in that of CGTAGCGCGT, 1.
The value for TCCTTCTTTC was 1.1; that for TCTACGAGAC was 1.57; that for ATTCACAGTG was 1.03.
The value for CATCAGGGAC was 1.67.
With GCGCCAGGAT, the switch fluorescence ratio was found to be 0.985.
The value for GTGGGAGAAA was 0.975; that for GCGTACGCTA was 1.03.
On to ATTGTGCCGT, for which the switch fluorescence ratio came out at 1.02.
On to ACACTGAAGC, for which the switch fluorescence ratio worked out at 1.05.
The value for CGTAGTAGCC was 1.03.
The value for CCGTCGGATG was 1.03; that for AAAGCGCCGG was 1.05.
On to TATGTCGTGG, for which the switch fluorescence ratio came out at 1.
In the case of GTATATGTTA it was 0.984.
Consider CGTTTAGAGA, for which the switch fluorescence ratio turned out to be 0.941.
The value for TAGGACCCCT was 1.07; that for GTTATTCGAT was 1.05; that for ATTCAACGG was 1.05.
Take GTAATGTAAT: the switch fluorescence ratio worked out at 0.981.
In the case of CGTATAATTC it was 1.02; in that of TACTTTTGGT, 1.02; in that of CCAATAGGAG, 1.06.
With AAGAGTGAAG, the switch fluorescence ratio came to 0.98.
The value for TTTATTGTGA was 1.01.
The value for GGGACGCGTG was 1.05; that for TAATGTTGGC was 0.958; that for CGTTGGAGGT was 0.982.
In the case of AACCATTAGC, the switch fluorescence ratio was 1.03.
With TAATATAATA, the switch fluorescence ratio worked out at 0.976.
For the sequence GTTGCTGAGA, the switch fluorescence ratio was found to be 0.987.
On to GCGGGGAGTC, for which the switch fluorescence ratio came out at 1.03.
Regarding TCATAAAGGC, the switch fluorescence ratio turned out to be 1.02.
TGCAGTGTT: the switch fluorescence ratio amounted to 1.01.
In the case of ATTGCTTTGT it was 1.03; in that of GAACATTAAG, 1.03; in that of AGCGATTCA, 0.989.
In the case of ACACATGACG it was 0.99; in that of GGCCGGGATA, 1.03; in that of CTTTTCAGTT, 1.02.
In the case of CAACTCACAC it was 1.3.
CTGCCACGGA: the switch fluorescence ratio was 1.02.
In the case of ATACGCTCGG it was 1; in that of AGAGGTACT, 1.01.
In the case of GTGGAGCGCC it was 0.994; in that of GAGCTTGTAC, 1.32; in that of GGTTGAAGCA, 0.987.
The value for TCATAACCCG was 1.08.

Source of the values: the supplement of paper PMC10126150.
